Laboratory results: publication PMC10199079, “ERK and USP5 govern PD-1 homeostasis via deubiquitination to modulate tumor immunotherapy” (Nature Communications, 2023)
No constants are given. Whether binding was seen depends on the method and setting. In cells and extracts the contact can be indirect. Some results given as binding are weak or reduced against the parent protein; the word gives no strength.

Amino acid sequences for entries named in this document (tags omitted). A change or cut given only in a name is not applied to a line headed by its entry. Chains listed by the source or under a name are the forms on record and can include a tag or linker. Residues count along the entry.
UniProt Q15116: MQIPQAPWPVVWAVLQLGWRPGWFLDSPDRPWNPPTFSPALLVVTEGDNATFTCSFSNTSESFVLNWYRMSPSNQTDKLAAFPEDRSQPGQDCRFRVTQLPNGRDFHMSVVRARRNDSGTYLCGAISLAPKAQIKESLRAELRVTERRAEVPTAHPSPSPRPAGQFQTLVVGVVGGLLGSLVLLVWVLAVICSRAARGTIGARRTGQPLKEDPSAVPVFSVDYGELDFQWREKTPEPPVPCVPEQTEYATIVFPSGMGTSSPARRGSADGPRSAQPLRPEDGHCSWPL
PD-1, endogenous (human T cell lines) (human (endogenous in Jurkat, MOLT-4)): residues 25-288 of Q15116
PD-1-cHA T234A (Q15116, form named): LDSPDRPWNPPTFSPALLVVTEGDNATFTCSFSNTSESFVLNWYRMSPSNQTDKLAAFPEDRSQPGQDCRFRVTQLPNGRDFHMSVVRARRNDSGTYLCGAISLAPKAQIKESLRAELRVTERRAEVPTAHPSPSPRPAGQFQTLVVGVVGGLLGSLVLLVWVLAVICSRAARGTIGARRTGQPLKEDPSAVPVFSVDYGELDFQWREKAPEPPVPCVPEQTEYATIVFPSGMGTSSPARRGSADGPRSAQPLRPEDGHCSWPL
UniProt P45974: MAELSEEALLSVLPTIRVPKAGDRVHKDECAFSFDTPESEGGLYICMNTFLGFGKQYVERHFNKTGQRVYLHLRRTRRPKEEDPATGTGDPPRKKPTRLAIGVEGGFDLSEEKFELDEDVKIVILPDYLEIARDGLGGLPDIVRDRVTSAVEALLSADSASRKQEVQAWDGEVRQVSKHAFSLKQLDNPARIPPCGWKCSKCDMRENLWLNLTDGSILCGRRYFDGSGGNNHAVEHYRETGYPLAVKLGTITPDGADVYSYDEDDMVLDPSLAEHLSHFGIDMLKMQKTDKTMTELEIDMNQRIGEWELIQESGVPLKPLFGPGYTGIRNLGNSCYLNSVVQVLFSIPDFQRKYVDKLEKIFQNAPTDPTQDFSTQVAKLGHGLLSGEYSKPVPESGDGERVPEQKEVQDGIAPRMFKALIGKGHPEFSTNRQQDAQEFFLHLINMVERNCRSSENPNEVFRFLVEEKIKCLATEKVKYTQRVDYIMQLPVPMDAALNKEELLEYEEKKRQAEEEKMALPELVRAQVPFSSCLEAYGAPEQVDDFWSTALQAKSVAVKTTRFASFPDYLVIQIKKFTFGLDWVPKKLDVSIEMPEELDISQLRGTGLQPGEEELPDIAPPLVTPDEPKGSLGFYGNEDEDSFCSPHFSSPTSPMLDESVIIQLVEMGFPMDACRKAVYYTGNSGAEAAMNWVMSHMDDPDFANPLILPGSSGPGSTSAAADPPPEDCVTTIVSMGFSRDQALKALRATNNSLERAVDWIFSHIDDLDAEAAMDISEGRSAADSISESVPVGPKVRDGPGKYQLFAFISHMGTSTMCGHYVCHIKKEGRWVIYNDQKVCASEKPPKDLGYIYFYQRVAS
UniProt Q02242, residues 25-288: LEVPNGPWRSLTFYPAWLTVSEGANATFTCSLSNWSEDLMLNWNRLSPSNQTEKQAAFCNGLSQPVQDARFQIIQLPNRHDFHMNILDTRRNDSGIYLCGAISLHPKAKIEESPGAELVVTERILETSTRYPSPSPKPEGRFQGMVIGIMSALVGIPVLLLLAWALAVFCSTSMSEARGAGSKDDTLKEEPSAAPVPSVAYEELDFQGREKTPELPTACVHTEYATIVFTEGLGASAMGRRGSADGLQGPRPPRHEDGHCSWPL
UniProt P27361: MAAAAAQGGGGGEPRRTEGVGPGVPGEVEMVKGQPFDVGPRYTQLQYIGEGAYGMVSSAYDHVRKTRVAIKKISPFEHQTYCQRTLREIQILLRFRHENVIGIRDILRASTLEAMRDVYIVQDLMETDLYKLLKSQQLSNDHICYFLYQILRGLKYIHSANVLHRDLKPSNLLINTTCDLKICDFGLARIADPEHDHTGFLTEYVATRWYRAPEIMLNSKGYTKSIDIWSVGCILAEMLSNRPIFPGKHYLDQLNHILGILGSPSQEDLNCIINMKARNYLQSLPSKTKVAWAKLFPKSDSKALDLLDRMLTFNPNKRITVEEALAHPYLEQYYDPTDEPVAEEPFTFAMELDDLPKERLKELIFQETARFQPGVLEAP
UniProt P28482: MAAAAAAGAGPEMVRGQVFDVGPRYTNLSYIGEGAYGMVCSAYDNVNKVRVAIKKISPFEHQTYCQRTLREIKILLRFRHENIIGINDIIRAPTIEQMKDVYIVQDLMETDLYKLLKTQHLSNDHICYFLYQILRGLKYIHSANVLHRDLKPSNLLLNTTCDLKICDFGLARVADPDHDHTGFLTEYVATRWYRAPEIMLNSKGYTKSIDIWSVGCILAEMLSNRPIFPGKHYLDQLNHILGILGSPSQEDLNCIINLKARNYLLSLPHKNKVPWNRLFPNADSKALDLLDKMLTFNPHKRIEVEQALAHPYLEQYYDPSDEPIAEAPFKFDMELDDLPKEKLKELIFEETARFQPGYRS
UniProt P56399: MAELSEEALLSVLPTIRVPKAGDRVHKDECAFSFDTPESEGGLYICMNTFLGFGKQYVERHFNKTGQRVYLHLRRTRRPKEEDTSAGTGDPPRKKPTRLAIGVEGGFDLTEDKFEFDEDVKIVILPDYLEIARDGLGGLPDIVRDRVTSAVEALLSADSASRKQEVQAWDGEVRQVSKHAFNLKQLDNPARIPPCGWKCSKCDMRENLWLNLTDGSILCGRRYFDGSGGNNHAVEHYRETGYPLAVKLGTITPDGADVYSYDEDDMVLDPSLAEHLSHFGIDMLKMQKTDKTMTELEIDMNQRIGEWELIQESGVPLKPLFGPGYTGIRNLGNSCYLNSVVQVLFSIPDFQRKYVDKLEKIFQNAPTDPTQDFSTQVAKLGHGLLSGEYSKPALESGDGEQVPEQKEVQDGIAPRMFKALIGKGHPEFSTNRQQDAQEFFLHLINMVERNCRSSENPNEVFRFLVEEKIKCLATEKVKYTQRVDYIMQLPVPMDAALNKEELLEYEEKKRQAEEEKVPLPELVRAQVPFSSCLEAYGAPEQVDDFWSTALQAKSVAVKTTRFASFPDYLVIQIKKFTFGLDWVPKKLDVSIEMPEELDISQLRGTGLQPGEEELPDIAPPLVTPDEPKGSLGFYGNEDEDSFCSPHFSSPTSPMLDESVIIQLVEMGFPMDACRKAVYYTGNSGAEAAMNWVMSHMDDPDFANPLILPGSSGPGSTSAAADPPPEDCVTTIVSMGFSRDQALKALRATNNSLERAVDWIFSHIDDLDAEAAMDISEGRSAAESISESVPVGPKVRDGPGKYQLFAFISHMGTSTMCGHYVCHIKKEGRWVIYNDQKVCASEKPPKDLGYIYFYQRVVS

How the values were obtained:
PD-1-cHA (human) [1] = target: PD-1-cHA (human) (UniProt Q15116); assay: pull-down; GST pull-down precipitates from HEK293T cell lysates transfected with indicated constructs (Fig. 3j); which partner carried GST is not shown
PD-1-cHA (human) [2] = target: PD-1-cHA (human) (UniProt Q15116); assay: co-IP; HEK293T cells co-transfected with indicated constructs; lysed in EBC buffer, anti-HA or anti-Flag beads 4 h at 4 °C, washed with NETN buffer, immunoblot; some panels with 10 μM MG132, co-expressed ERK, KRAS or BRAF, or Trametinib (0.5 or 1 μM)
PD-1-cHA T234A (human) = PD-1-cHA T234A (human) (UniProt Q15116); assay: as above
GST-USP5 (human) = GST-USP5 (human) (UniProt P45974); assay: pull-down; 3 μg GST-USP5 WT or truncates (or GST) immobilized on glutathione-Sepharose, incubated with HA-PD-1 WT or truncates from HEK293T cell lysates at 4 °C for 3 h, washed five times with NETN buffer; one panel with lysate of cells treated with 1 μM Ulixertinib; only the target purified
[3] = target: PD-1, endogenous (mouse primary CD3+ T cells) (mouse (endogenous in primary CD3+ T cells)) (UniProt Q02242); assay: co-IP; anti-PD-1 IP of endogenous proteins from Jurkat (PHA 150 ng/mL, 3 days), MOLT-4 and mouse primary CD3+ T cells (anti-CD3/CD28 2 μg/mL, 48 h); one MOLT-4 panel with Trametinib and MG132
[4] = target: PD-1, endogenous (human T cell lines) (human (endogenous in Jurkat, MOLT-4)) (UniProt Q15116); assay: as above

ERK1 (from UniProt P27361 1-379) (enzyme)
binding (PD-1-cHA (human) [1]): binds
binding (PD-1-cHA (human) [2]): binds

ERK2 (from UniProt P28482 1-360) (enzyme)
binding (PD-1-cHA (human) [1]): binds
binding (PD-1-cHA (human) [2]): binds

Myc-USP5 (from UniProt P45974 1-858) (enzyme)
binding (PD-1-cHA (human) [2]): binds
binding (PD-1-cHA T234A (human)): binds

PD-1-cHA (from UniProt Q15116 25-288) (receptor)
binding (GST-USP5 (human)): binds

PD-1-cHA T234A (from UniProt Q15116 25-288) (receptor)
binding (GST-USP5 (human)): binds

PD-1-ΔC192-288 (from UniProt Q15116 25-191) (domain or fragment)
binding (GST-USP5 (human)): no binding (tested: 3 μg GST-USP5)

PD-1-ΔC241-288 (from UniProt Q15116 25-240) (domain or fragment)
binding (GST-USP5 (human)): binds

Usp5, endogenous (mouse primary CD3+ T cells) (from UniProt P56399 1-858) (enzyme)
binding [3]: binds

ubiquitin-specific protease 5 (USP5), endogenous (from UniProt P45974 1-858) (enzyme)
binding [4]: binds
